These are yes or no findings as the source states them, for the method shown. Binding seen in cells or lysates may run through a third protein. Where a sequence is shown, tags or fusion partners need not be part of it.
Columns and labels:
Assay in all cases: co-IP; V5H6-tagged FRQ (wild type or mutant) pulled down with V5 agarose from Neurospora lysate (cultures in the light, 25 °C); 50 mM Hepes pH 7.4, 137 mM NaCl, 10% glycerol, 0.4% NP-40; 4 °C, 2 h; Western blot with FRQ, FRH, WC-1 and WC-2 antibodies
[1] = target: T1, FRQ Δ511–558, V5H6-tagged (Neurospora crassa) (UniProt P19970)
T1 sequence: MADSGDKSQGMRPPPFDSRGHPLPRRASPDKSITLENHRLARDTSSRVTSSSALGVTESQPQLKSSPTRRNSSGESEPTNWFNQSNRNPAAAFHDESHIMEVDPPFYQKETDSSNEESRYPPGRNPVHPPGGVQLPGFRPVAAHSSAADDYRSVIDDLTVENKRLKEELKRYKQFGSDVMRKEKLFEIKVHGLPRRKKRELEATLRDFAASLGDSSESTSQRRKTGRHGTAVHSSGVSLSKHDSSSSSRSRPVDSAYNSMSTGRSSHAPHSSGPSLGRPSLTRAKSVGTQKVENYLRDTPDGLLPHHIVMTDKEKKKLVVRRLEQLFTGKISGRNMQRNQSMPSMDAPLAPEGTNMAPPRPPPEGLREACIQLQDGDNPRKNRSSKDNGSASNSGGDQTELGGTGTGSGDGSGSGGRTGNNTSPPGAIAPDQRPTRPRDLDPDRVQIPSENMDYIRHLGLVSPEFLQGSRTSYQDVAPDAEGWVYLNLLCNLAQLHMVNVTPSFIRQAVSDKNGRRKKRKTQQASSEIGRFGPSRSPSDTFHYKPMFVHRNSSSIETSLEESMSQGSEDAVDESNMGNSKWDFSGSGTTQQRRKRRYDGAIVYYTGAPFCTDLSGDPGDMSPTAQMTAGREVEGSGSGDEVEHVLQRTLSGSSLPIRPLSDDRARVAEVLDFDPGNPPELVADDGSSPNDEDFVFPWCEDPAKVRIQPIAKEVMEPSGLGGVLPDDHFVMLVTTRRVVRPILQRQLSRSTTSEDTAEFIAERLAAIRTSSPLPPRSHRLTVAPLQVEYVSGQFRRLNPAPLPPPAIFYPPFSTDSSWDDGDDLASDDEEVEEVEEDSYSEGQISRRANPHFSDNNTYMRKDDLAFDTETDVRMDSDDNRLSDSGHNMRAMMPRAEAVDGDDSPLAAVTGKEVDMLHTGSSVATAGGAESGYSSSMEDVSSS

The chains behind the UniProt entries cited, without tags or fusion partners.
UniProt Q01371: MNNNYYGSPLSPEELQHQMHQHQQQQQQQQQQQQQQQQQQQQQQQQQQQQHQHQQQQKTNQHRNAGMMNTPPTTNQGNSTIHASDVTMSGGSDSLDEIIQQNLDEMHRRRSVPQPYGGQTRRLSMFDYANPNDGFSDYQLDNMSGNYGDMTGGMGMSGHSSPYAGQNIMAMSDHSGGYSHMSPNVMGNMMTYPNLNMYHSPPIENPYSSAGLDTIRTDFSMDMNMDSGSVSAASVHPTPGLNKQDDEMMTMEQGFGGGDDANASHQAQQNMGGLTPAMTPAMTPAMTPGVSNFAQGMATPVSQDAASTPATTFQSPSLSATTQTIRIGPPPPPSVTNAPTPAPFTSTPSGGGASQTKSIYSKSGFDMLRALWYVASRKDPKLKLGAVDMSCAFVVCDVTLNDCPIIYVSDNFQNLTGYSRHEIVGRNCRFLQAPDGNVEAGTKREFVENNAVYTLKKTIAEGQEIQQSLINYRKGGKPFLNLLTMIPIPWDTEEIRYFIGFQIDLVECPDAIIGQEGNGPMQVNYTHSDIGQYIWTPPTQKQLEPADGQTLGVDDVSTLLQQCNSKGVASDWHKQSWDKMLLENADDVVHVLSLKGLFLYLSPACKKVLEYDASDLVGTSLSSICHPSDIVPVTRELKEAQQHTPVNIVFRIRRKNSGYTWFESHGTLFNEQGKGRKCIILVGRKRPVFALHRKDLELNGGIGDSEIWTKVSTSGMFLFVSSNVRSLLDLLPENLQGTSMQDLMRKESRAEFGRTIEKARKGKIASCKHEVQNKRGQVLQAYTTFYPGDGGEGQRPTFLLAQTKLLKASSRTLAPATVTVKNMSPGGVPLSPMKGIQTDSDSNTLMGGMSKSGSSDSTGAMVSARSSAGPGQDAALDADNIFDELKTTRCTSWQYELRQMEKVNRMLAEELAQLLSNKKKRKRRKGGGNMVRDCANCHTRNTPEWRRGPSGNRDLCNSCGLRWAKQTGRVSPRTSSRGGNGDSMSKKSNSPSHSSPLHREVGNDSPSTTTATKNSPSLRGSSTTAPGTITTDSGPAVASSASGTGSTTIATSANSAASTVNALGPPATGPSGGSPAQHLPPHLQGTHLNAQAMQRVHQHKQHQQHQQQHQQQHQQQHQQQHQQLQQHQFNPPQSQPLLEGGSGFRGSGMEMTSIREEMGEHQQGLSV

[2] = target: T2, FRQ 629–989, V5H6-tagged (Neurospora crassa) (UniProt P19970)
T2 sequence: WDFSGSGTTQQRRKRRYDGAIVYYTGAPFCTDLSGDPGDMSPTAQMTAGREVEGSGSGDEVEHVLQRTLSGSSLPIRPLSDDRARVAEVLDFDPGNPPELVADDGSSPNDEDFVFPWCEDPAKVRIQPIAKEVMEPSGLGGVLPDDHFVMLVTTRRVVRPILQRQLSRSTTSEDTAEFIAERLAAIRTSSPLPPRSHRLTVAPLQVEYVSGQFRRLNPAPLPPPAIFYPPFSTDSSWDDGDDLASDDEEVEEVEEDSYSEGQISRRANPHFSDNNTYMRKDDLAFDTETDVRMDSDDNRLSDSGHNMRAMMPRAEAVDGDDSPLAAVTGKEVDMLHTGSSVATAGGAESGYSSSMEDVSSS

[3] = target: T3, FRQ Δ482–510, V5H6-tagged (Neurospora crassa) (UniProt P19970)
T3 sequence: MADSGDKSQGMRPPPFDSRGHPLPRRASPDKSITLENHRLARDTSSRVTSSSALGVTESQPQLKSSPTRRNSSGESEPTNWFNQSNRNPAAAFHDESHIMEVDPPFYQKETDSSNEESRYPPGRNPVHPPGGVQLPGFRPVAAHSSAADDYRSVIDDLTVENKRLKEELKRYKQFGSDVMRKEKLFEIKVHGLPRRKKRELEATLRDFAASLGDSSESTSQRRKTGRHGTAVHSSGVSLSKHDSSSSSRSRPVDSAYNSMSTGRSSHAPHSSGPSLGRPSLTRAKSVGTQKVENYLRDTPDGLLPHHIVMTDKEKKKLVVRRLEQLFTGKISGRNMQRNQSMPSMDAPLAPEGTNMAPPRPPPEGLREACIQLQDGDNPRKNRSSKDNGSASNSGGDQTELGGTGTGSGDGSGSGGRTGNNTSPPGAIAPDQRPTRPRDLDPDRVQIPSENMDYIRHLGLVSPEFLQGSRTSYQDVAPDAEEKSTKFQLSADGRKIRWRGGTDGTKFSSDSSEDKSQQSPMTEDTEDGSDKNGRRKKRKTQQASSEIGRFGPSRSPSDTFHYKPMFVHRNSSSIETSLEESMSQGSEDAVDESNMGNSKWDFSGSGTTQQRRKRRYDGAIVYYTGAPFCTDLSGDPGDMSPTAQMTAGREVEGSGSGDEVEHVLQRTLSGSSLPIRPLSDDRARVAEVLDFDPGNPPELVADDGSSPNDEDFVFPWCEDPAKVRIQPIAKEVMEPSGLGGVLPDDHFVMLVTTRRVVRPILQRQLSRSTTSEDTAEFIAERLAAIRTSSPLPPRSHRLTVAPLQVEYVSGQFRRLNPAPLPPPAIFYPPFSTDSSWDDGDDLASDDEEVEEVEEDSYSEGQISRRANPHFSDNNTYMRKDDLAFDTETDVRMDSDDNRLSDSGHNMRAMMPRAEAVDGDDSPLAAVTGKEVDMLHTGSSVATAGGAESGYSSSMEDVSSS

binding [1]: no binding
binding [2]: no binding
binding [3]: no binding
Substance: White Collar-1 (WC-1) (from UniProt Q01371 1-1167)

— PMC10320511
